Test results from PMC4336329 (PLoS ONE, 2015).
Out of some 310,000 compounds screened, about 2,200 (0.71%) showed an effect of 50% or more. The effect is printed as a negative number. The list shows a part of the results.

Each compound was assayed against human ether-à-go-go-related gene (hERG) potassium channel (human, UniProt Q12809) (assay: primary screen, population patch clamp on CHO cells stably expressing hERG).
Sequence of human ether-à-go-go-related gene (hERG) potassium channel (Q12809 whole entry, looked up): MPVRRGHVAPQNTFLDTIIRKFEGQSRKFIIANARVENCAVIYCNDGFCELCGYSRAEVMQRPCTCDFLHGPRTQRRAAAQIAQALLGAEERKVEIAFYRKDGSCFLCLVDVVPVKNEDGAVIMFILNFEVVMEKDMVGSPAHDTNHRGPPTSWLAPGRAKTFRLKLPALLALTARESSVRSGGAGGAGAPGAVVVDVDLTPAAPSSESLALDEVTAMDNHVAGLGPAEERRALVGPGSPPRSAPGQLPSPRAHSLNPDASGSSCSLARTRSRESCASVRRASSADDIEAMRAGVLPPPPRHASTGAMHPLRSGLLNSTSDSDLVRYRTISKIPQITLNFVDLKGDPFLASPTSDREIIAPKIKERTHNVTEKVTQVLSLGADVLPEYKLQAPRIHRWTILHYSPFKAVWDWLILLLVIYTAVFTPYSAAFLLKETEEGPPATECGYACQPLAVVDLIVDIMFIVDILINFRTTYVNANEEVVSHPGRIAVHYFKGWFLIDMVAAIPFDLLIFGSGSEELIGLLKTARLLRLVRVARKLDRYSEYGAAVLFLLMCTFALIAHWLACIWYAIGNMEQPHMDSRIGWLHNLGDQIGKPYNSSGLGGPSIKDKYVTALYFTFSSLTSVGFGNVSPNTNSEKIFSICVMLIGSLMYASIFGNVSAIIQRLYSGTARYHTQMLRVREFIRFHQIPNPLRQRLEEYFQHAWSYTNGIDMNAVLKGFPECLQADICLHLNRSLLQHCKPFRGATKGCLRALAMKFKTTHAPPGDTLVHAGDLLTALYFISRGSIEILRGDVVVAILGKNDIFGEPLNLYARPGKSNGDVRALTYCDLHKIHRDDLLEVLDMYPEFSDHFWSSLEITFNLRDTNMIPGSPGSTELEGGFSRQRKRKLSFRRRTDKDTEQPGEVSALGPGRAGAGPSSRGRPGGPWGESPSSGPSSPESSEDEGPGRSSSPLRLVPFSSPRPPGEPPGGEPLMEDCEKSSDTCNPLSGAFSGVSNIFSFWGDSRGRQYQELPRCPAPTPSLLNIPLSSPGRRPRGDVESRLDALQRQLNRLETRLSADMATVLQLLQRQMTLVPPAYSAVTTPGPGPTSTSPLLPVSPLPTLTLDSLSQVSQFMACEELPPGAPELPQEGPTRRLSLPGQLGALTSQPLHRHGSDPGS
With `Cc1cccc(C(=O)NNC(=O)C2CCN(C(=O)OC(C)(C)C)CC2)c1` the “hERG current change (%, negative = inhibition) at 1uM” value was 14.9%.
In the case of `CCS(=O)(=O)c1nc(S(=O)(=O)c2ccc(Cl)cc2)c(N2CCCC2)s1`, the “hERG current change (%, negative = inhibition) at 1uM” value is reported as 13.1%.
`COc1ccccc1C1c2ccc3ccccc3c2Oc2ncn(CCCO)c(=N)c21` (centres unmarked) was tested, and the “hERG current change (%, negative = inhibition) at 1uM” value was -5.99%.
With `COc1cc(C(=O)NNC(=O)C2CSC3(C)CCC(=O)N23)cc(OC)c1OC` (centres unmarked) the “hERG current change (%, negative = inhibition) at 1uM” value was 6.68%.
In the case of `C[n+]1cn(Cc2ccc(C#N)cc2)c2ccccc21.[Cl-]`, the “hERG current change (%, negative = inhibition) at 1uM” value is reported as -0.811%.
With `COCCN(CC1CCCN(C2Cc3ccccc3C2)C1)C(=O)CCSC` (centres unmarked) the “hERG current change (%, negative = inhibition) at 1uM” value was -4.27%.
For `O=C1N=C(N2CCOCC2)S/C1=C\C=C/c1ccccc1`, the “hERG current change (%, negative = inhibition) at 1uM” value was -30%.
For `Cc1cccc(NC(=O)N2CCCC(CNC(=O)c3ccccc3Cl)C2)c1C` (centres unmarked), the “hERG current change (%, negative = inhibition) at 1uM” value was 20.7%.
`CCOc1ccc(Nc2ccc(S(=O)(=O)N3CCN(C)CC3)cc2[N+](=O)[O-])cc1OCC` was tested, and the “hERG current change (%, negative = inhibition) at 1uM” value was 8.31%.
For `CC1(C)CC(=O)NC=C(c2ccccc2)C1`, the “hERG current change (%, negative = inhibition) at 1uM” value was -4.42%.
With `Cc1ccc(CSc2nccc(-c3c(C)nc4ccccn34)n2)cc1` the “hERG current change (%, negative = inhibition) at 1uM” value was 12.6%.
In the case of `Cc1cccc(-n2c(SCC(N)=O)nc3c(c2=O)C2(CCCC2)Cc2ccccc2-3)c1`, the “hERG current change (%, negative = inhibition) at 1uM” value is reported as -0.531%.
With `COCCCNC(=S)N/N=C/c1ccc(O)cc1O` the “hERG current change (%, negative = inhibition) at 1uM” value was 4.31%.
For `O=C(CCCOc1ccccc1)Nc1nncs1`, the “hERG current change (%, negative = inhibition) at 1uM” value was -1.99%.
`Cn1c(=NC(=O)C2CC2)sc2cccc(F)c21` was tested, and the “hERG current change (%, negative = inhibition) at 1uM” value was 1.19%.
`CCOC(=O)c1ccc2c(c1)[nH]c(=S)n2CC` was tested, and the “hERG current change (%, negative = inhibition) at 1uM” value was 12.3%.
In the case of `O=C(NCc1ccccc1)C1CCN(C(=O)NCc2ccccc2)CC1`, the “hERG current change (%, negative = inhibition) at 1uM” value is reported as 18.8%.
`CCOC(=O)c1sc(NC(=O)CN2C(=O)c3cccc4cccc(c34)C2=O)nc1C` was tested, and the “hERG current change (%, negative = inhibition) at 1uM” value was 11.6%.
For `Cc1cc(/C=C2\SC(=O)N(CC(=O)Nc3ccccc3F)C2=O)c(C)n1C`, the “hERG current change (%, negative = inhibition) at 1uM” value was 10.5%.
For `O=C(COC(=O)c1nc(Cl)ccc1Cl)c1ccc(Cl)s1`, the “hERG current change (%, negative = inhibition) at 1uM” value was 11.9%.
`O=C(NCc1ccc(Cl)cc1)c1cc(=O)nc2sc(-c3ccccc3)nn12` was tested, and the “hERG current change (%, negative = inhibition) at 1uM” value was -10.3%.
For `O=C1c2ccccc2N2C(=O)c3ccccc3C2N1Cc1ccco1` (centres unmarked), the “hERG current change (%, negative = inhibition) at 1uM” value was 8.1%.
For `CCn1ncc(Br)c1C(=O)Nc1cc([N+](=O)[O-])ccc1C`, the “hERG current change (%, negative = inhibition) at 1uM” value was 9.28%.
For `O=C(O)c1ccc(NC(CSCc2ccccc2F)C(=O)O)c([N+](=O)[O-])c1` (centres unmarked), the “hERG current change (%, negative = inhibition) at 1uM” value was 8.88%.
In the case of `Cc1cc(C)nc(N/N=C/c2ccccc2OCC(=O)O)n1`, the “hERG current change (%, negative = inhibition) at 1uM” value is reported as 13.9%.
`Cc1ccc(OCC(=O)NNC(=O)CCc2ccccc2)cc1` was tested, and the “hERG current change (%, negative = inhibition) at 1uM” value was 3.57%.
In the case of `Fc1ccc(Nc2nnns2)cc1`, the “hERG current change (%, negative = inhibition) at 1uM” value is reported as 15.5%.
With `O=[N+]([O-])c1cccc(-c2nnc(-c3ccc4c(c3)OCO4)o2)c1` the “hERG current change (%, negative = inhibition) at 1uM” value was 8.07%.
For `COc1ccc(-c2cc(-c3ccco3)[nH]c(=O)c2C#N)cc1OC`, the “hERG current change (%, negative = inhibition) at 1uM” value was 13.5%.
With `Cc1ccccc1OCCC(=O)OCC(=O)N(C)c1c(N)n(Cc2ccccc2)c(=O)[nH]c1=O` the “hERG current change (%, negative = inhibition) at 1uM” value was 8.86%.
For `CCCN(CCC)CCCNC(=O)c1cc2cc3ccc(OC)cc3nc2o1`, the “hERG current change (%, negative = inhibition) at 1uM” value was -6.32%.
In the case of `Cl.O=C(CCS(=O)(=O)c1ccccc1)N(CCCN1CCOCC1)c1nc2ccc(F)cc2s1`, the “hERG current change (%, negative = inhibition) at 1uM” value is reported as -2.41%.
`O=C(NCCC1=CCCCC1)C(=O)NCc1ccncc1` was tested, and the “hERG current change (%, negative = inhibition) at 1uM” value was 9.59%.
`O=C(CSc1ccc(-c2ccccn2)nn1)NCc1ccc(F)cc1` was tested, and the “hERG current change (%, negative = inhibition) at 1uM” value was 9.07%.
With `O=C(O)CN1C(=O)SC(Nc2ccccc2)C1=O` (centres unmarked) the “hERG current change (%, negative = inhibition) at 1uM” value was 1.66%.
For `COc1ccc2oc(C(=O)OC(C)C(=O)NCc3ccccc3)c(C)c2c1` (centres unmarked), the “hERG current change (%, negative = inhibition) at 1uM” value was 12.1%.
`O=C(CSc1nnc(-c2ccc(Br)cc2)n1CCc1ccccc1)NC1CCS(=O)(=O)C1` (centres unmarked) was tested, and the “hERG current change (%, negative = inhibition) at 1uM” value was -60.7%.
In the case of `Cc1ccc(C2=NS(=O)(=O)N(C)C(C(=O)N3CCCCC3)=C2)cc1`, the “hERG current change (%, negative = inhibition) at 1uM” value is reported as 2.24%.
`N#Cc1nc(-c2ccco2)oc1N1CCC(C(N)=O)CC1` was tested, and the “hERG current change (%, negative = inhibition) at 1uM” value was -0.374%.
`Cc1c(C(=O)N2CCOCC2)c(S(=O)(=O)Nc2cccc(F)c2)c(C)n1C` was tested, and the “hERG current change (%, negative = inhibition) at 1uM” value was -2.45%.
In the case of `COCCSc1nnc(NC(=O)Cc2cccs2)s1`, the “hERG current change (%, negative = inhibition) at 1uM” value is reported as 14.8%.
In the case of `COc1ccc(N(CC(=O)Nc2cc(OC)ccc2OC)S(C)(=O)=O)cc1`, the “hERG current change (%, negative = inhibition) at 1uM” value is reported as 10.5%.
In the case of `CCOc1ccc(NC(=O)Cn2nnc(-c3ccccc3NC(=O)CC)n2)cc1`, the “hERG current change (%, negative = inhibition) at 1uM” value is reported as 5.05%.
In the case of `COC(=O)N1c2ccccc2C=Cc2ccccc21`, the “hERG current change (%, negative = inhibition) at 1uM” value is reported as 12.3%.
